# Experimental data published in article PMC7819943, “Rice protein-binding microarrays: a tool to detect cis-acting elements near promoter regions in rice”.
# Some of the results follow.
# Biological target: T1, OsWOX13 (Oryza sativa, UniProt Q5QMM3 1-267)
# T1 sequence: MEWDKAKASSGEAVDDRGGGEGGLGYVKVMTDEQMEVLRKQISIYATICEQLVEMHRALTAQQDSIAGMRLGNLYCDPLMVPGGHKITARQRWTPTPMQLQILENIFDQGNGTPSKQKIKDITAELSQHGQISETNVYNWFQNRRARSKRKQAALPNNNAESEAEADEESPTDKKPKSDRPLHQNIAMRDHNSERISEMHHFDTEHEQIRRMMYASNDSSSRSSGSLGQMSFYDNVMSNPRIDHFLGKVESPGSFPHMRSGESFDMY
# Assay: protein-binding microarray (RPBM); PBS, 2% BSA, 51.3 ng/ul salmon testes DNA, 50 uM zinc acetate, 200 nM TF, 25 C, 1 h; high values mean tight binding
# Conditions: protein: recombinant; tags: N-terminal polyhistidine and DsRed monomer fusion (pET32a); label: CyDye5-dUTP incorporated in the synthesized complementary strand; 3' TTTTT single-stranded linker to array surface; dsDNA, one strand shown
# Method in brief: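 The binding signal for each feature is its fluorescence intensity in arbitrary units. An Axon 4000B scanner was used to read a custom Agilent array that had been made double-stranded with Cy5-dUTP primer extension, blocked with 2% BSA, incubated at 25 °C for 1 h with 200 nM protein in PBS, 2% BSA, salmon testes DNA and 50 µM zinc acetate, and washed. The protein was an N-terminal polyhistidine–DsRed transcription factor fusion from E. coli BL21-CodonPlus, purified on Ni–NTA.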
row,Sequence,binding signal
1,GATCTTAATTGGGCATGCTTTGGTTTTAATTAGTTGATCGCGGAGTCACCTAGTGCAG,35900 fluorescence intensity (a.u.)
2,GCCACAAATTTTGACAATTTAACCCTTTGTAAAGACTATTCGGAGTCACCTAGTGCAG,5990 fluorescence intensity (a.u.)
3,TCGAGGACATTAATTAGTGTCACTCTTATTGATATACTCTCGGAGTCACCTAGTGCAG,8800 fluorescence intensity (a.u.)
4,ACTAACATGTCACGTAATTTCAATAAGCAAGATAGTAATACGGAGTCACCTAGTGCAG,7520 fluorescence intensity (a.u.)
5,CATCACTAATCACTATATCATTGGGCTAGTTTAGGTTGATCGGAGTCACCTAGTGCAG,5170 fluorescence intensity (a.u.)
6,CCGCGATTACAATTAGCGCCGGATTAACCCTGCAATTAGCCGGAGTCACCTAGTGCAG,20500 fluorescence intensity (a.u.)
7,TCACAAAATAAACTAGATGAATGGAGCTAGGATTAGGCAGCGGAGTCACCTAGTGCAG,3440 fluorescence intensity (a.u.)
8,CACCATTGATATTGATTAACCGCACCAAAGTTGTCTTTATCGGAGTCACCTAGTGCAG,11000 fluorescence intensity (a.u.)
9,GTTCAATCTCATTTCAATTTTAGGATATCCGATCGATTGGCGGAGTCACCTAGTGCAG,10200 fluorescence intensity (a.u.)
10,ACTCTAATCACAAATATAAAAGAGGAAGCATGAGCCTAGTCGGAGTCACCTAGTGCAG,7240 fluorescence intensity (a.u.)
11,CAAAATTTAAATAAATTATCGGCTGTAGGCGGATAGGGAGCGGAGTCACCTAGTGCAG,34300 fluorescence intensity (a.u.)
12,ATGTAATGATGAATGATTTGAATGTCTTTGTTATGGATAACGGAGTCACCTAGTGCAG,18700 fluorescence intensity (a.u.)
13,CATTATTGATTGATTGATTCGCAGATTCGCCGCTGCCACCCGGAGTCACCTAGTGCAG,57200 fluorescence intensity (a.u.)
14,CACTATCAATCATCATCAGCTGATAAAATTATCGTTCTAACGGAGTCACCTAGTGCAG,13400 fluorescence intensity (a.u.)
15,ACCTCTTCTTCTCTTTGTCCCCTTCTCCATTTCCAAATTCCGGAGTCACCTAGTGCAG,6430 fluorescence intensity (a.u.)
16,CTCCACTAATCTAAAATTTGTTTAATGGATCATTGCATCACGGAGTCACCTAGTGCAG,16000 fluorescence intensity (a.u.)
17,GTTCTCATCATCATCAATCCCATATAAACTGGATTAAGGCCGGAGTCACCTAGTGCAG,13200 fluorescence intensity (a.u.)
18,ATTGAACTGACACATAGTAACAAATTACCTGTAGCAGTATCGGAGTCACCTAGTGCAG,3180 fluorescence intensity (a.u.)
19,ACTAAATTGATGTTATAGATGTTGTTATATTATTCCAGAACGGAGTCACCTAGTGCAG,26200 fluorescence intensity (a.u.)
20,GAAACATCAAATTAGTTCCATTAAATGTATTTTGATAACACGGAGTCACCTAGTGCAG,9680 fluorescence intensity (a.u.)
21,GCGAGGTAAATTTATTAAGCCTAATAAATCCGTCGCTAGCCGGAGTCACCTAGTGCAG,3780 fluorescence intensity (a.u.)
22,GCCATCTACTCATGTGATCACTCATTTATAATCTATATATCGGAGTCACCTAGTGCAG,3630 fluorescence intensity (a.u.)
23,GGCCTCTGATTGCGTTGCGCCTTTCGTCGTGCCACGGCGTCGGAGTCACCTAGTGCAG,30100 fluorescence intensity (a.u.)
24,ACCGTGTTGATAGAAATTTGTCATAGTCTCACATATTTTCCGGAGTCACCTAGTGCAG,10700 fluorescence intensity (a.u.)
25,GTGACTTCATTAATCTCCATGATGAATTTGCTGGCCCAATCGGAGTCACCTAGTGCAG,3210 fluorescence intensity (a.u.)
26,TGTAGATGATGATTTATTAAAATAAATAATCATAACACATCGGAGTCACCTAGTGCAG,29000 fluorescence intensity (a.u.)
27,ATTAATGACCTAATCTCCAACTAAACTCCCTATCAACTTCCGGAGTCACCTAGTGCAG,4830 fluorescence intensity (a.u.)

row,Sequence,binding signal
1,CATGATGCTTAATTTGCATAACGTTTTGCCCCTGGAGGGCCGGAGTCACCTAGTGCAG,13000 fluorescence intensity (a.u.)
2,GCCCAATCCGCCTGTCTCTCTCTCGTTCCCCTCCAATCCACGGAGTCACCTAGTGCAG,4180 fluorescence intensity (a.u.)
3,CATTTCAATCTTTCAGTGGATGAACAATCAACCAGCAGAGCGGAGTCACCTAGTGCAG,4640 fluorescence intensity (a.u.)
4,TAGAATGATGTGACTGAAAAGTTGAAAGTTTATGTGTGTACGGAGTCACCTAGTGCAG,5430 fluorescence intensity (a.u.)
5,CAAATATTTATGATTGAATAAAGTACCGTTGTACAAAATTCGGAGTCACCTAGTGCAG,11900 fluorescence intensity (a.u.)
6,TCTGAAATTTCAGTCTGTCTCCAATTTTAGATGACCGAAACGGAGTCACCTAGTGCAG,9160 fluorescence intensity (a.u.)
7,AACTCCTAACTTTCCATCACATCACATCACATACAAAACTCGGAGTCACCTAGTGCAG,4580 fluorescence intensity (a.u.)
8,ATTAATTGATTTTCTATTTCATATAGCTAATGTAACAGCTCGGAGTCACCTAGTGCAG,48800 fluorescence intensity (a.u.)
9,AATTACTACTACTAATTAGCTAGTAGCTAGTTTCTGTGCTCGGAGTCACCTAGTGCAG,8060 fluorescence intensity (a.u.)
10,GACAGTGACCCATCAATCAATGCACAAGCAGCAGTGACGTCGGAGTCACCTAGTGCAG,16900 fluorescence intensity (a.u.)
11,CATAATTTGCATACAAATAGAATTTCCATCGAGAAATCTTCGGAGTCACCTAGTGCAG,3440 fluorescence intensity (a.u.)
12,GCAATAATTACATATTTAACCTCATGCGAGCATACAACATCGGAGTCACCTAGTGCAG,16300 fluorescence intensity (a.u.)
13,GAAATAAGTAGTATTAATTGAAGTATGGATTAGTAGTGTTCGGAGTCACCTAGTGCAG,8510 fluorescence intensity (a.u.)
14,CAATAGATTGCGTCATCTCTGTTCATTAGCAGTAGTTTTGCGGAGTCACCTAGTGCAG,26100 fluorescence intensity (a.u.)
15,AGATGGGAATCATTATCAATCTATCATCCTAAATATAAACCGGAGTCACCTAGTGCAG,4070 fluorescence intensity (a.u.)
16,TCATGTGATATAATTTGCATTAAATTTGAGTATGGAATAGCGGAGTCACCTAGTGCAG,8690 fluorescence intensity (a.u.)
17,TTACACTGATTGATGCTCCACATGAACACCACATGCATTTCGGAGTCACCTAGTGCAG,32600 fluorescence intensity (a.u.)
18,GCTCCATATATATAAATTAAATCTATCCTATTTGGTGAGTCGGAGTCACCTAGTGCAG,3880 fluorescence intensity (a.u.)
19,AATCAATTTGATGATGATGACCGGAGGAAAAGAACGAAAACGGAGTCACCTAGTGCAG,13100 fluorescence intensity (a.u.)
20,AAATTAAATTATTTTGTAACGGAGTGAGTAACTTCTAGCTCGGAGTCACCTAGTGCAG,16400 fluorescence intensity (a.u.)
21,TCTTACTTCTAATTTAAAATTAATTTGCCATACCTGTTTTCGGAGTCACCTAGTGCAG,13500 fluorescence intensity (a.u.)
22,CCCATAACTGAATTGTTAATTTTGTCACGCGAGCAACGCACGGAGTCACCTAGTGCAG,48400 fluorescence intensity (a.u.)
23,AATAAATTTATTTAGCTGCCAATAAACAAAGGAAACTGGACGGAGTCACCTAGTGCAG,17700 fluorescence intensity (a.u.)
24,TTCCGGTTCCATATTAATTGATATTTTAGACAAGGCTAAGCGGAGTCACCTAGTGCAG,16700 fluorescence intensity (a.u.)
25,TAGTAAACAATAACATATAATTGACATCAAAATTATGATCCGGAGTCACCTAGTGCAG,9430 fluorescence intensity (a.u.)
26,TAATTTGATGGATTATTGTCACTGACATCATCACCAGCACCGGAGTCACCTAGTGCAG,25400 fluorescence intensity (a.u.)
27,TAATTAATTATCTTTTAAAATATTAATGTATCACGTTAATCGGAGTCACCTAGTGCAG,12000 fluorescence intensity (a.u.)
